Data taken from the RNAGym collection of RNA variant scans (doi:10.7554/elife.90254).
The source gives no read counts; variants with many changes may rest on few reads.

B1: LINE1-full (parent)
chain: UACGUAGGUGGUUUUCCCCUGAUAGUGCUAAGGGGGCCUGGAAGUUUGGACUGGGCAGAGCUCAACACAGCGUGGCAAAGUGGCUGUGGCUAGACUGCCUCUCUGGAUUCCUCGUCACUCAGCAGGGCAUCUCUGAGAGAAAUGCC

Variants of: B1
Assay: self-cleavage, relative activity (ratio to wild type); higher = more cleavage; in vitro, sequencing; the parent is a self-cleaving ribozyme

Row | Variant | self-cleavage
1 | U5C U14C A30G A43G A59G A78U A79U U100C | 0
2 | U5C G93A U115G A121G | 0.21
3 | U5G A138G U143A | 1.75
4 | U5C G74A A129U | 1.04
5 | U5C U12G A79G U112C | 2.83
6 | U5C A69U U130A U134C | 0.32
7 | A6G A42G U81C | 1.17
8 | U5C U45C U62C | 0.13
9 | U5G A67G A141G | 0.87
10 | U5C U73C A79G C120U A142G | 0.8
11 | U5C U73C A140G | 2.3
12 | U5C G55A U119C | 0.65
13 | U5C U14A C111U A136U | 1.28
14 | U5C U23C A57U U100C G106A U112A | 0.09
15 | U5C A92G U119A | 0.18
16 | A6C U9A U119A | 0.96
17 | U5C U20C U100C | 0.95
18 | A6C U9A U119C U132C A136G | 0.61
19 | U5C U9A A22U U73C | 0.67
20 | U5C C19U U102A U119C | 0.78
21 | U5C A24G U46C A140U | 0.56
22 | U5C A42G A124G | 0.6
23 | U5C U20A U62A A117G A141G | 0
24 | U5C U12C A31C U46C G58U U102C | 0

Row | Variant | self-cleavage
25 | U5C C51G U73A A92G U115C | 0.35
26 | U5C U12G U39A A77G C95U | 1.02
27 | A6G A50U U81A | 1.3
28 | U5C U109A A142G | 1.78
29 | U5C U102C A141G | 1.5
30 | U5C U13C A59G A69G | 0
31 | A6G A50G A77U A94G C101A A136G | 0.61
32 | U5C U20C U115C | 2.76
33 | U5C G72U U115A C131U | 1.19
34 | A6G A50G A136G | 1.7
35 | U5C A69G U132C | 0.36
36 | U5C U15C A69U U96G U104A | 0.93
37 | U5C U26A U47C U73A | 0
38 | U5C A42C A94G A121U U134C | 2.16
39 | A6C U14C A79G C146A | 0.53
40 | U5C U13C A79G U115C | 0.79
41 | U5C U26A A50G U73A U115A | 0.32
42 | U5C U13C U39A A57U A65U A117C | 0
43 | A6C U73A U100C U134A | 2.74
44 | A6G A30G A42G A65U A94G A140G | 2.3
45 | U5C G34A U45C U87C | 0.27
46 | U5C G126U U134C | 1.33
47 | U5C U20A U46A | 1.67
48 | A6G A43G U52A U62C A140G | 0.25

Row | Variant | self-cleavage
49 | U5C G40A U47C U91C | 0.44
50 | U5C A57C C110A | 0.04
51 | U5C U20A A59U U62C U96C | 0
52 | U5C G36C A65U | 0.24
53 | U5C U12C U26C U130C | 0.74
54 | U5C U87A U100C | 0.08
55 | U5C A24G A42G | 1.31
56 | U5C U9C A57U U73A A77G C145U | 0.12
57 | U5C U12C U20C U29A A124U | 1.53
58 | U5C U104C A117U | 2.4
59 | U5C U23A U62A | 0.19
60 | U5C U20A U47G A136G | 1.08
61 | U5C C71U A79U U108C | 1.31
62 | U5C A59G A77U A121U | 0.32
63 | U5C A24G U39C U47A A59G A79U A129U | 0.26
64 | U5C A57G U109A | 0.97
65 | U5C A64U A79C | 0.65
66 | A6G A30U C37U U104G | 0.38
67 | U5C U9C A43G | 1.02
68 | U5C A64G C113U | 0.44
69 | U5C U85C U134C | 0.53
70 | U5C A50G C146U | 1.08
71 | A6G A50G U102A | 0.9
72 | U5C U26C A77U | 1.02

Row | Variant | self-cleavage
73 | U5C A24G U104C | 1.31
74 | U5C A42G U73C C131U | 1.38
75 | U5C C145U C146U | 0.48
76 | U5C U20G A42U A121U | 0.74
77 | A6G A50U U91A A94G | 0.29
78 | A6G A43U U132C U143C | 0.4
79 | U5C G54A A107U | 0.51
80 | U5C U108C U119G | 1.97
81 | U5C U9A A31G U96A U104C C113A C145U | 0.16
82 | U5C C51A U62C C146U | 0.2
83 | A6G A43G C66U A77U A129U | 0.13
84 | U5C G7A U23C | 1.24
85 | U5C C63U A121U | 0.17
86 | U5G U14C U130A | 0.37
87 | U5G U14C U130C | 0.69
88 | U5C U9C U12G U115C | 0
89 | U5C U39C U143C | 0.36
90 | A6C U13C U73A U119C | 1.06
91 | U5C U73C C101A U115C U130A | 2.51
92 | U5C U13C U52C A78G A121U | 0.46
93 | A6G A59G U108C | 0.68
94 | U5C G7A A50G | 0.82
95 | U5C A65G A141G A142G | 0.55
96 | U5C U115C U134C | 0.94

Row | Variant | self-cleavage
97 | U5C U12G A42G U46C A59G | 0
98 | A6G A78G U109A U115G | 0.47
99 | U5C U15A A77G U104A | 1.42
100 | U5C G54A U108C U132C A142G C146U | 1.92
101 | U5C C76U U112C U134A | 0.62
102 | U5C U14C C17A U102C | 0.96
103 | U5C C90G A94G A124G | 0.26
104 | A6G A59G A94G | 0.57
105 | U5C U13A U20C | 0.51
106 | U5C U15A U73A U104A | 0.7
107 | A6G A31G U96C U102C A142U | 0
108 | A6G A77G U108C | 0
109 | U5C A24U U47C U130C | 0.68
110 | U5C U13A U46C G135A | 0.34
111 | U5C U12A U20C A57G | 0.42
112 | U5C U47C C103U A121G A138G | 1.15
113 | U5C C123U A129C U143C | 0.69
114 | A6C U45C U47C | 0.42
115 | U5C A42G U85C U130C | 0
116 | A6C A31U A67U U115C A142G | 0.5
117 | U5C U20C A107U | 0.92
118 | U5C U9A C19U A22G | 0.84
119 | A6G A78U U81A U134C | 2.35
120 | U5G U20C U100C | 0.38

Row | Variant | self-cleavage
121 | U5C A79U A138G | 0.28
122 | A6C G25A U47A A57U U62C A67G | 0.11
123 | U5C U73G G125A | 0.81
124 | U5C U26G C38U A42G | 0
125 | U5C G58A A129G | 0.19
126 | A6G A43U U91A | 0.56
127 | U5C A136G A141G U143A | 1.75
128 | U5C U9A G21A C61U | 0.21
129 | A6G A22G U23A A138U | 1.06
130 | U5C G53U A79G U112A A136G | 0.48
131 | U5C A67G A121G | 1.15
132 | A6G A30U U73G C90U | 0.19
133 | U5C U9C U85A | 0.11
134 | U5C G75A U87A U96C A136G | 0
135 | U5C A31U U130C | 1.02
136 | U5C C19U A121U U130C | 1.8
137 | A6G A22G U62A C76U A79G U85C C128U A129G | 0.23
138 | U5C U13C U26C A77C A142G | 0.71
139 | U5C U14C U47C | 0
140 | A6G A43G U115G U132A A138G | 0.35
141 | U5C U23A G32A C99U U104A A136U | 0.47
142 | U5C U96C U134C | 0
143 | A6G A64G A69G U87A | 0.44
144 | A6G A22U A43U U96C U130A | 0.44

Row | Variant | self-cleavage
145 | U5C U52A U85A | 0.15
146 | U5C U45A U87A U132A U134A | 0.05
147 | U5C G34U U39A U96C A142G | 0.26
148 | U5C U108C U134C | 0.66
149 | A6G A57G U73C A140U | 0.84
150 | U5C U26A A77G A107G | 1.95
151 | U5G U15A A43U C111U | 0.44
152 | U5C A77U A78G | 0.92
153 | A6G A31U C71U A138U | 1.09
154 | U5C C38A U100C | 1.39
155 | A6G A31U C84U | 0.31
156 | U5C U115A U132C A142G | 2.26
157 | U5C U73C G89A | 0.07
158 | A6G A42G A117U A142U | 0
159 | U5G A67C A121U | 0.37
160 | U5C A42G U52C U85C | 0
161 | U5C U81G U108A A129G | 2.45
162 | U5C U15C U46A A136G A138G | 1.17
163 | U5C G21A A31G A57G U81C A140U | 0.77
164 | U5C U112C G122U A140G U143C | 0.78
165 | A6G A42G C56U A78U A140G | 0.23
166 | U5C U29G U85A G88A U132C A142U | 0.04
167 | U5C A107C C145U | 0.88
